Sequences with one replicate were seen in a single cluster, so their values are uncertain.
System: ATP
Test: switch fluorescence ratio, 500 uM ATP over buffer (Cy3 cluster intensity, sum of 5 cycles each) (fold (ratio)); higher = stronger signal-on switching upon ATP binding; sequences stand for … in TCGTCGGCAGCGTCAGATGTGTATAAGAGACAGTTTTTTTTTTTTTTTTTTTTTTTTT…TC
Conditions: aptamer strand: ATP DNA aptamer (quencher-CACCTGGGGGAGTATTGCGGAGGAAGG + anchor), 100 nM annealed; ATP concentration: 500 uM; one replicate
Summary of the method: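 Cy3-labelled switching-strand clusters on a modified Illumina MiSeq flow-cell were annealed to 100 nM quencher-labelled ATP aptamer and imaged first in selection buffer, then after 15 min with 500 uM ATP at 22 °C. NaOH stripping and re-annealing separated each of five buffer/ATP cycles, and clusters outside 100-1000 RFU were excluded. The fluorescence ratio sums target-cycle Cy3 intensity over buffer-cycle Cy3 intensity per cluster and averages it per switch-domain sequence.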
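Also: ATP exposure 15 min at 22 °C before imaging.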

Sequence | switch fluorescence ratio
TGGATCAACA | 1
GGTCCAAGCC | 0.996
TCAAATAAAG | 0.997
AATCACTGGG | 0.986
TAGCGCATGT | 0.986
TTTCATGGAC | 0.988
AGAGACGAGG | 1.01
GAAGTCGCCA | 0.98
GCAAACTAGT | 1.02
GGATTGCTCC | 1.04
TCGTTTTAAT | 0.978
CTGAAGAACA | 1.04
ATAACTGTGG | 1.01
TTGATGTTTT | 0.957
AGTTGACTGG | 0.998
ATCTTATAAG | 1.02
GCAGGGGTCC | 1.05
GCGGGGCGAC | 0.987
TCGGGTGTA | 0.954
CCCGGTGTGG | 1.15
TAGATACACT | 1.01
ATAAGCGATA | 1.19
TTTTTTCTGC | 1.02

Sequence | switch fluorescence ratio
AAAGGGATTA | 1
TCTAATTGTG | 0.967
ACTATCTGCG | 1
CTCCATACCT | 1.32
TCCAAGATAA | 1.38
TGCGTTACAC | 1.06
GGTTCCATGA | 0.993
CTTACTAGAT | 0.99
ATGAGCATTG | 1.03
TAAAAGTACG | 1.03
CTTGAATTGC | 0.978
ATTGCGCGG | 1.01
CCTACGTCCG | 1.74
TCTGGGCCGC | 1.09
CACGGTACCA | 1.33
AGTGGACAT | 0.983
GTTGTTCTAC | 1.03
CTCATGCCAT | 1.05
CCACCCGGCT | 0.964
CTCTTGTTTG | 1.03
GTGAACAAGC | 0.973
TTCCTCCACG | 1.5
CAGATCTTTC | 1.02

Sequence | switch fluorescence ratio
CACACTAATC | 1.03
TTGTCGGTGC | 1.11
ACGAGTAAAT | 1
ATTAAACCTA | 1.06
GTGGGATCGA | 1.02
TTTTACTGG | 0.993
CAATTAGGCG | 1.03
GTCTTCGG | 0.944
AGGGCCTGTA | 1.03
AGACTTCGCT | 1.02
CGGGGCATAC | 4.68
TCTAAATGAT | 1.01
GTGGTACTAC | 1.03
CGGGGGTGC | 0.989
TTACGTTATT | 1.18
GCGCAAAGCT | 1.06
CTGTGCAGGC | 1.45
GATATAAAAA | 1.15
GTTACGTCTC | 0.979
AGGAATTTGC | 0.966
TTTCACAGGT | 1.16
GTTTCAAATG | 0.97
GAGCTGGTTT | 1.03

Sequence | switch fluorescence ratio
GCTAGACAAC | 1.06
TAAGAGATGG | 0.988
CCCGGGGACT | 1.34
AATTTTAGAC | 1.04
TGGTCATTAA | 0.975
GGCGGGGAAC | 0.981
CTTCAAGTTC | 1.04
TATTAAGCCG | 0.986
CGTCCCGTAA | 1.58
GACCACCCAA | 1.28
CAATTGGGCC | 0.991
AGTCCAGGGG | 0.923
TCAAAAGTGC | 1.01
GGGTATAAAC | 0.985
ATGGCAAAGG | 1.03
ATCTCGGGA | 1.01
TCGTGGGCCA | 0.963
CGTTTGAAAG | 0.962
GTGCATAACG | 0.95
GATACTACTT | 1.05
TGTCGTTTAG | 1.02
TACGTAGCGG | 1.26
AATAGATCTA | 0.985

Sequence | switch fluorescence ratio
CTTATGACAC | 1.05
CATATTAGCG | 0.958
TTTAGAAGAT | 0.969
AACGGGACTA | 1.14
GGTCTGGGAA | 1.06
ACTATTTGG | 1.01
ACATTTGGCA | 1.06
CCTGAGTGGC | 1.16
ATAAAACGTA | 1.16
TAGACGCTCT | 1.05
GGGGACCTCG | 0.984
GATTGGCAAC | 1.06
CCACGGATTG | 1.03
GATCGATGTC | 1.1
TTTCTCACG | 1.06
ACGTCTATTC | 1.12
CCAGTTGAGG | 0.97
CTGACCGCCG | 1.08
CTGGTCCGAT | 0.975
GCACTGTCGA | 1.1
TTGTTGCTAA | 1.13
ACCCGAAACG | 1.07
GAAGTGTGCT | 1.02

Sequence | switch fluorescence ratio
CCAGGGAACC | 1.01
AGAGAGGCGC | 0.974
TAAACTTCCT | 1.39
ATTGGGCTGG | 0.985
TCTGTTGGGA | 0.988
GGTGCTAACA | 0.971
TGCTTGGCCC | 1.04
TTATATCTAA | 1.04
CAGATATCGC | 0.982
CGTCCTCTTT | 0.982
GTAGCTTCGG | 0.994
ATAGGTTATG | 0.945
CTTTCCTGA | 1.02
CTTAGCAGGA | 1.01
GATTGCGCTG | 0.983
GAGCTAGTAT | 1.04
TCCTTTATGA | 1.03
CCGGTTGGAC | 1.56
GACGTTGACC | 1.12
ATAGATCAGT | 1.02
CTTTGCCTTT | 1.51
CGTGAGGCT | 1.05
TTTGTACGAC | 1.1

Sequence | switch fluorescence ratio
CTGGAAGTA | 1.01
GCGCCTATTC | 1.12
GGCCTTTCCA | 1.06
GAACCAGTAT | 0.996
ATGAGCTGCA | 0.934
ATGACTGTGA | 0.974
AGTATGGGT | 0.966
TTAAATGGTC | 1.05
TCTGTTAAG | 0.964
TCGAAAGGAC | 1.07
CGAGCTTACT | 1.86
ATTTTCTCTA | 0.987
GCTGTCTTGC | 1.03
GTATGCTATG | 1.01
GGCAAAGGCT | 1.02
CGTAATGCCC | 1.01
ATGCGCTGGT | 1
GCGGGAGGAC | 1.04
CAGGATAACG | 1.04

— the supplement of paper PMC10126150
